Assay results taken from PubChem BioAssay AID1159614 (National Center for Advancing Translational Sciences (NCATS), 2016).
Out of some 45,000 compounds screened, about 65 (0.1%) were called active. Calls follow the shape of the dose curve; as a rule, active = well fitted activation curve with a large enough effect; inconclusive = small, poorly fitted or top-dose-only effect; inactive = no such curve, though single readings can be large or run the other way. The list shows a part of the results.

target: Galactocerebrosidase (Homo sapiens) (UniProt P54803); experiment: A Novel Cell-Based Assay to Identify Small Molecules for B -Galactocerebrosidase; conditions: 145M-Twi-hGALC-G270D cells (Twitcher mouse brain line with human GALC G270D), HMU-beta-Gal fluorescence, 48 h; series mostly up to 57.5 µM; activation: at the top concentration; also: 0% is about no effect; nearly all actives have a fitted effect of over 65% in size
Procedure, shortened: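 Brain-derived Twitcher mouse 145M-Twi cells stably expressing human GALC-G270D or wild-type GALC, treated live, then residual GALC activity read by fluorescence of HMU-b-Gal substrate (0.1 mM final) in citrate-phosphate buffer pH 5.2 with sodium taurocholate. Signal increase indicates enhancement.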

Sequence of UniProt P54803 (P54803 whole entry, looked up): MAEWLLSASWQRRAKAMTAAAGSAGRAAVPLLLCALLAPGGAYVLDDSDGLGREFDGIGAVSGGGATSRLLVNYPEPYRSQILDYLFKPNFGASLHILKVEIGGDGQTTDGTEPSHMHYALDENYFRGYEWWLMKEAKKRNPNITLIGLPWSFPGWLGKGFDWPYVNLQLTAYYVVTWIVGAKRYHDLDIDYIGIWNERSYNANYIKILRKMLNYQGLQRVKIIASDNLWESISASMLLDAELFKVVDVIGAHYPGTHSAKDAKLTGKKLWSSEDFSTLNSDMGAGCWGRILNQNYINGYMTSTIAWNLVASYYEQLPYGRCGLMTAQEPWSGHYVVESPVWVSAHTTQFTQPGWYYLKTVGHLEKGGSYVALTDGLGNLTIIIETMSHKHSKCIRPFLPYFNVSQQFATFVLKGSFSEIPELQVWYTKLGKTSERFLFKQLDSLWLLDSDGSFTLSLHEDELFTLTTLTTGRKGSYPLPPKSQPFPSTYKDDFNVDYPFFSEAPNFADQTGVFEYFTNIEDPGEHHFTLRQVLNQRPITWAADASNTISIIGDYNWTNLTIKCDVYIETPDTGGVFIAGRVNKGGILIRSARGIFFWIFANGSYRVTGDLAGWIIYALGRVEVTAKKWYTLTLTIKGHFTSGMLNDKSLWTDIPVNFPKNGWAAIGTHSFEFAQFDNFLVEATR

activation, inactive:
NC1CCN(c2cccc(Cl)n2)CC1 -15.7%
COc1ccccc1CNC(=O)CCCn1c(=O)c2cccn2c2ccccc21 -12.5%
CC(C)(C)OC(=O)N1CCC(c2c(C(=O)N3CCOCC3)cnn2-c2ccccc2Cl)CC1 -16.8%
CCCCNC(=O)CCCn1c(=O)c2ccccc2n(Cc2ccc(Cl)cc2)c1=O -25.7%
COc1ccc(C2CC(=O)c3cnc4c(-c5ccccc5)c(C)nn4c3C2)c(OC)c1 (stereo not drawn) -11.2%
COc1ccc2c(c1)c1c(c(=O)n(-c3ccc(OC)c(OC)c3)c(=O)n1Cc1ccc(C)cc1)n2C -0.845%
Fc1ccc(-c2noc3ncnc(N4CCCCC4)c23)cc1 8.32%
COc1ccc(Cc2nc3ccc(C(=O)NCc4cc(Br)ccc4OC)cc3o2)cc1 -10.5%
N#Cc1ccccc1S(=O)(=O)N1CCC(Oc2ccc(-n3cnnn3)cc2)CC1 -12.5%
O=C(Cc1ccccc1)Nc1cc(-c2nc3cc(Cl)ccc3o2)ccc1Cl -8.55%
CCc1c(C)nc2nncn2c1Nc1cccc(C)c1 -8.09%
COc1ccc(-c2nc(SCC(=O)Nc3cccc(C(C)=O)c3)n[nH]2)cc1 -7.81%
COc1ccc(NC(=O)C2CCN(c3nc(-c4ccc(OC)c(OC)c4)no3)CC2)cc1Cl -14.9%
CCOC(=O)c1c(NC(=O)c2cc(=O)c3c(C)cc(C)cc3o2)sc2c1CCC2 1.92%
COc1ccc(-c2cc(C(=O)OCC(=O)c3cccc(OC)c3)c3cccc(Cl)c3n2)cc1 -16.2%
O=C(O)CCNC(=O)c1ccc(N=Nc2ccc(O)c(C(=O)O)c2)cc1 -16.1%
COc1ccccc1N(C)C(=O)Cn1c(=O)oc2cc(S(=O)(=O)N3CCCC3)ccc21 -6.78%
Cc1ccccc1CNC(=O)C1CCCN(c2nnc(-n3c(C)ccc3C)s2)C1 (stereo not drawn) 19.7%
CCOC(=O)c1c(NC(=O)CS(=O)(=O)c2ccc(Cl)cc2)sc2c1CCCC2 -19.8%
COc1ccc(CCC(=O)NCc2nc3cccnc3n2Cc2ccc(OC)cc2)cc1 -1.24%
CNC(=O)C1CCN(C(=O)N2CC(C)Oc3ccc(C)cc32)CC1 (stereo not drawn) -17.3%
Cc1ccc(C)c(NC(=O)Cn2nnc(C(=O)NCc3ccco3)c2N)c1 5.35%
CCOC(=O)c1c(C)oc2ncnc(N3CCN(c4cccc(Cl)c4)CC3)c12 -13.5%
CC1=C(C(=O)Nc2ccccc2)C(c2ccccc2Cl)n2ncc(C(=O)Nc3cccc(C)c3)c2N1 (stereo not drawn) -13.7%
COc1ccc(Cl)cc1NC(=O)CSc1nc2ccccc2nc1N1CCCCC1 2.73%
CCOC(=O)c1c(C)[nH]c(C)c1S(=O)(=O)N1CCN(c2ccccc2OC)CC1 -26.7%
Cn1c(=O)c2c(ncn2CC(=O)Nc2cc(Cl)cc(Cl)c2)n(C)c1=O 6.93%
Cn1cc(S(=O)(=O)N2CCCCCC2)cc1C(=O)N1CCN(c2ccc(Cl)cc2)CC1 -8.86%
CCOC(=O)c1cc(-c2ccccc2)n(CCCC(=O)Nc2ccc(C)c(C)c2)c1C -13.2%
Cc1nn(C)c2c1c(C(F)(F)F)cc(=O)n2C(C)C(=O)N1CCN(c2ccccc2)CC1 (stereo not drawn) -12.2%
CN(Cc1ccccc1)C(=O)c1cc2c(s1)-c1ccc(Cl)cc1SC2 -9.57%
COc1cc(NCc2ccc3nc(N)nc(N)c3c2C)cc(OC)c1OC -16.9%
CCOc1ccc(CNC(=O)Cn2c(=O)c3cccn3c3ccc(F)cc32)cc1OC -1.02%
O=C(CCCCn1c(=O)c2ccccc2n(CC(=O)Nc2cccc(F)c2)c1=O)NCc1ccccc1Cl -4.9%
COc1cc(/C=C/c2nc(C#N)c(NC(C)c3ccccc3)o2)cc(OC)c1OC (stereo not drawn) -1.36%
CCOC(=O)CCN(c1ccccc1)S(=O)(=O)c1ccc2[nH]c(=O)ccc2c1 -6.64%
O=C(c1ccc(Cl)cc1)n1nc(-c2ccco2)nc1NCc1cccs1 -1%
CCc1ccc(Oc2nc3c(C)cccn3c(=O)c2/C=C(\C#N)c2nc3ccccc3s2)cc1 -18%
Cc1ccc(CNC(=O)Cn2c(=O)n(-c3ccccc3)c(=O)c3c2c2cc(C)ccc2n3C)cc1 2.48%
Cc1ccc(NC(=O)CCSc2nc(-c3ccc4c(c3)OCO4)cc(C(F)(F)F)n2)cc1 -14.8%
CCCCN(C)CCNC(=O)Cn1ncc2c([nH]c3ccccc32)c1=O -10.3%
O=C(Cc1csc2nc(-c3ccccc3)cn12)NCc1ccc(F)cc1 -10.4%
O=C(NCC(c1cccs1)S(=O)(=O)c1cccs1)c1ccc(C(F)(F)F)cc1 (stereo not drawn) -2.08%
CCOc1ccccc1NC(=O)N1CCCn2nc(C)cc21 -14%
COc1cc(C(=O)NCc2ccc(OCCN(C)C)cc2)cc(OC)c1OC -9.3%
COc1ccc(CCCc2nnc(SCC(=O)Nc3ccccc3F)o2)cc1C -13.7%
Cc1ccc(-n2ncc3c(N(CCO)Cc4ccccc4)ncnc32)cc1 -9.26%
CCCN1CCCC[C@H]1C(=O)Nc1c(C)cccc1C -18.3%
CCOCCCNC(=O)CN1C(=O)c2c(c3ccccc3n2C)C1c1ccc(OC)cc1 (stereo not drawn) -9.79%
COc1cccc(N(Cc2nnc3n2CCCCC3)C(=O)Nc2cccc(Cl)c2)c1 -6.64%
O=C(OCc1ccccc1Cl)c1ccc(-c2nnn(Cc3ccccc3Cl)n2)cc1 -27.3%
CCOC(=O)c1c(S(=O)(=O)N2CCCC(C(=O)Nc3ncccc3C)C2)c(C)n(C)c1C (stereo not drawn) -11%
COc1ccc(N(C(=O)COc2ccc(Br)cc2)S(=O)(=O)c2ccc(C)cc2)cc1 -17.4%
Cc1ccc(NC(=O)CCc2c(C)nn(-c3ccc(N4CCOCC4)nn3)c2C)cc1F 11.5%
O=C(NC1CC(=O)N(c2ccc(F)cc2)C1)c1ccc(S(=O)(=O)N2CCCC2)cc1 (stereo not drawn) -10.8%
CCN(C(=O)CSc1nc2ccccc2nc1Cc1cccc(OC)c1)c1cccc(C)c1 -6.27%
Cc1ccc(Cn2c(C(=O)O)c(CNCCc3cccs3)c3ccc(C)cc32)cc1 -3.73%
O=C(COc1ccc(Cl)cc1)Nc1ccc(O)c(-c2nc3ccccc3s2)c1 -24%
Cc1ccc(NC(=O)Nc2nc3c(s2)CCCCCC3)cc1C -13.6%
CN(C)c1ccc(C(CNC(=O)c2ccccc2Cl)N2CCc3ccccc32)cc1 (stereo not drawn) -17%
CC(C)NCC(O)COc1ccc(CCOCC2CC2)cc1 (stereo not drawn) -11.9%
CCCCOc1ccc(C(=O)NCCS(=O)(=O)N2CCN(c3ccccc3OC)CC2)cc1 -18.3%
COc1ccccc1NC(=O)c1ccc2[nH]c(C)cc(=O)c2c1 -17%
